Measured values: publication PMC2836968 (Molecular Biology of the Cell, 2010)

B1: Aha1 D293A (natural protein)
chain: not shown
B2: Aha1 E221A (natural protein)
chain: not shown
B3: Aha1 E67K (natural protein)
chain: not shown

Key:
human Hsp90β [1] = target: T1, human Hsp90β (human, UniProt P08238); assay: SPR
human Hsp90β [2] = target: T1, human Hsp90β; assay: SPR; remark: listed apart in the source
T1 sequence (P08238 whole entry): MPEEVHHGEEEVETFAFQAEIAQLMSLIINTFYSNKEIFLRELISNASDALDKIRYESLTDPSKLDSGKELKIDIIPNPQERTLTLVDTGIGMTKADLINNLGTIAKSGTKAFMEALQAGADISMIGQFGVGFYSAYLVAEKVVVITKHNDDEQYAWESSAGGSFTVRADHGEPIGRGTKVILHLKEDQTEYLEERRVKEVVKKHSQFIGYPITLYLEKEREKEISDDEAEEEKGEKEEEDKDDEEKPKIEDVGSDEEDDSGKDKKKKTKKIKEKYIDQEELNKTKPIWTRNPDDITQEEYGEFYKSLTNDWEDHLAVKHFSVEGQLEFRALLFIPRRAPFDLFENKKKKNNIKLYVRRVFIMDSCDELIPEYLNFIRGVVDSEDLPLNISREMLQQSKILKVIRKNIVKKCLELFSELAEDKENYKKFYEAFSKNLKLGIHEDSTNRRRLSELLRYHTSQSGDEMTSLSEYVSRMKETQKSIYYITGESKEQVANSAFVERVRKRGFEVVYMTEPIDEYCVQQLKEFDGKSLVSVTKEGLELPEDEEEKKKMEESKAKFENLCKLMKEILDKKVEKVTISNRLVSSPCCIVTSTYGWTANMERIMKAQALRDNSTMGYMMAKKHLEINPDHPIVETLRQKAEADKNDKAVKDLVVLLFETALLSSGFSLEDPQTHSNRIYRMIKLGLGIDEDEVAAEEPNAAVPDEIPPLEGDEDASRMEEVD

Binder	Kd (human Hsp90β [1]) [nM]	fold slower association rate than WT (human Hsp90β [2]) [fold]
B1	440	–
B2	890	–
B3	–	≥ 15
